According to US7816326B2, “Sulfur compounds as inhibitors of hepatitis C virus NS3 serine protease” (Schering Corporation, priority 2004, dated 2010):
pKi: −log10 of the molar value.

Target: Recombinant heterodimeric HCV NS3/NS4A protease (strain 1a) (Hepatitis C virus genotype 1a, UniProt P27958)
Test: Spectrophotometric assay for HCV protease inhibitory activity
Format: biochemical
Conditions: HCV serine protease inhibitory activity ranges; read-out: Ki* Range

| SMILES | pKi |
| --- | --- |
| CCCC[C@H](NC(=O)[C@@H]1[C@@H]2[C@H](CN1C(=O)[C@@H](NC(=O)NC1(CS(=O)(=O)N3CCC3)CCCCC1)C(C)(C)C)C2(C)C)C(=O)C(=O)NC1CC1 [compound 1339] | > 7.12 |
| CC(C)(C)[C@H](NC(=O)NC1(CS(=O)(=O)N2CCC2)CCCCC1)C(=O)N1C[C@H]2[C@@H]([C@H]1C(=O)N[C@@H](CCC1CC1)C(=O)C(=O)NC1CC1)C2(C)C [compound 1340] | > 7.12 |
| CCC[C@H](NC(=O)[C@@H]1[C@@H]2[C@H](CN1C(=O)[C@@H](NC(=O)NC1(CS(=O)(=O)N3CCC3)CCCCC1)C(C)(C)C)C2(C)C)C(=O)C(=O)NC1CC1 [compound 1341] | > 7.12 |
| CC(C)(C)[C@H](NC(=O)NC1(CS(=O)(=O)N2CCC2)CCCCC1)C(=O)N1C[C@H]2[C@@H]([C@H]1C(=O)N[C@@H](CC1CC1)C(=O)C(=O)NC1CC1)C2(C)C [compound 1342] | > 7.12 |
| CCCC[C@H](NC(=O)[C@@H]1[C@@H]2[C@H](CN1C(=O)[C@@H](NC(=O)NC1(CS(=O)(=O)N(C(C)C)C(C)C)CCCCC1)C(C)(C)C)C2(C)C)C(=O)C(=O)NC1CC1 [compound 1343] | > 7.12 |
| CC(C)N(C(C)C)S(=O)(=O)CC1(NC(=O)N[C@H](C(=O)N2C[C@H]3[C@@H]([C@H]2C(=O)N[C@@H](CCC2CC2)C(=O)C(=O)NC2CC2)C3(C)C)C(C)(C)C)CCCCC1 [compound 1344] | > 7.12 |
| CCC[C@H](NC(=O)[C@@H]1[C@@H]2[C@H](CN1C(=O)[C@@H](NC(=O)NC1(CS(=O)(=O)N(C(C)C)C(C)C)CCCCC1)C(C)(C)C)C2(C)C)C(=O)C(=O)NC1CC1 [compound 1345] | > 7.12 |
| CC(C)N(C(C)C)S(=O)(=O)CC1(NC(=O)N[C@H](C(=O)N2C[C@H]3[C@@H]([C@H]2C(=O)N[C@@H](CC2CC2)C(=O)C(=O)NC2CC2)C3(C)C)C(C)(C)C)CCCCC1 [compound 1346] | > 7.12 |
| CCCC[C@H](NC(=O)[C@@H]1[C@@H]2[C@H](CN1C(=O)[C@@H](NC(=O)NC1(CS(=O)(=O)N3CCC3)CCCCC1)C1(C)CCCCC1)C2(C)C)C(=O)C(=O)NC1CC1 [compound 1347] | > 7.12 |
| CC1([C@H](NC(=O)NC2(CS(=O)(=O)N3CCC3)CCCCC2)C(=O)N2C[C@H]3[C@@H]([C@H]2C(=O)N[C@@H](CCC2CC2)C(=O)C(=O)NC2CC2)C3(C)C)CCCCC1 [compound 1348] | > 7.12 |
| CCC[C@H](NC(=O)[C@@H]1[C@@H]2[C@H](CN1C(=O)[C@@H](NC(=O)NC1(CS(=O)(=O)N3CCC3)CCCCC1)C1(C)CCCCC1)C2(C)C)C(=O)C(=O)NC1CC1 [compound 1349] | > 7.12 |
| CC1([C@H](NC(=O)NC2(CS(=O)(=O)N3CCC3)CCCCC2)C(=O)N2C[C@H]3[C@@H]([C@H]2C(=O)N[C@@H](CC2CC2)C(=O)C(=O)NC2CC2)C3(C)C)CCCCC1 [compound 1350] | > 7.12 |
| CCN(C1CC1)S(=O)(=O)CC1(NC(=O)N[C@H](C(=O)N2C[C@H]3[C@@H]([C@H]2C(=O)N[C@@H](CCC2CC2)C(=O)C(=O)NC2CC2)C3(C)C)C(C)(C)C)CCCCC1 [compound 1351] | > 7.12 |
| CCC[C@H](NC(=O)[C@@H]1[C@@H]2[C@H](CN1C(=O)[C@@H](NC(=O)NC1(CS(=O)(=O)N(CC)C3CC3)CCCCC1)C(C)(C)C)C2(C)C)C(=O)C(=O)NC1CC1 [compound 1352] | > 7.12 |
| CCCC[C@H](NC(=O)[C@@H]1[C@@H]2[C@H](CN1C(=O)[C@@H](NC(=O)NC1(CS(=O)(=O)N(C(C)C)C(C)C)CCCCC1)C1(C)CCCCC1)C2(C)C)C(=O)C(=O)NC1CC1 [compound 1353] | > 7.12 |
| CC(C)N(C(C)C)S(=O)(=O)CC1(NC(=O)N[C@H](C(=O)N2C[C@H]3[C@@H]([C@H]2C(=O)N[C@@H](CCC2CC2)C(=O)C(=O)NC2CC2)C3(C)C)C2(C)CCCCC2)CCCCC1 [compound 1354] | > 7.12 |
| CCC[C@H](NC(=O)[C@@H]1[C@@H]2[C@H](CN1C(=O)[C@@H](NC(=O)NC1(CS(=O)(=O)N(C(C)C)C(C)C)CCCCC1)C1(C)CCCCC1)C2(C)C)C(=O)C(=O)NC1CC1 [compound 1355] | > 7.12 |
| CC(C)N(C(C)C)S(=O)(=O)CC1(NC(=O)N[C@H](C(=O)N2C[C@H]3[C@@H]([C@H]2C(=O)N[C@@H](CC2CC2)C(=O)C(=O)NC2CC2)C3(C)C)C2(C)CCCCC2)CCCCC1 [compound 1356] | > 7.12 |
| CN(CC1CC1)S(=O)(=O)CC1(NC(=O)N[C@H](C(=O)N2C[C@H]3[C@@H]([C@H]2C(=O)N[C@@H](CC2CC2)C(=O)C(=O)NC2CC2)C3(C)C)C(C)(C)C)CCCCC1 [compound 1357] | > 7.12 |
| CCN(C1CC1)S(=O)(=O)CC1(NC(=O)N[C@H](C(=O)N2C[C@H]3[C@@H]([C@H]2C(=O)N[C@@H](CC2CC2)C(=O)C(=O)NC2CC2)C3(C)C)C(C)(C)C)CCCCC1 [compound 1358] | > 7.12 |
| CCCC[C@H](NC(=O)[C@@H]1[C@@H]2[C@H](CN1C(=O)[C@@H](NC(=O)NC1(CS(=O)(=O)N(CC)C3CC3)CCCCC1)C1(C)CCCCC1)C2(C)C)C(=O)C(=O)NC1CC1 [compound 1359] | > 7.12 |
| CCN(C1CC1)S(=O)(=O)CC1(NC(=O)N[C@H](C(=O)N2C[C@H]3[C@@H]([C@H]2C(=O)N[C@@H](CCC2CC2)C(=O)C(=O)NC2CC2)C3(C)C)C2(C)CCCCC2)CCCCC1 [compound 1360] | > 7.12 |

| SMILES | pKi |
| --- | --- |
| CCC[C@H](NC(=O)[C@@H]1[C@@H]2[C@H](CN1C(=O)[C@@H](NC(=O)NC1(CS(=O)(=O)N(CC)C3CC3)CCCCC1)C1(C)CCCCC1)C2(C)C)C(=O)C(=O)NC1CC1 [compound 1361] | > 7.12 |
| CCC[C@H](NC(=O)[C@@H]1[C@@H]2[C@H](CN1C(=O)[C@@H](NC(=O)NC1(CS(=O)(=O)N(C(C)C)C3CC3)CCCCC1)C1(C)CCCCC1)C2(C)C)C(=O)C(=O)NC1CC1 [compound 1362] | > 7.12 |
| CC(C)N(C1CC1)S(=O)(=O)CC1(NC(=O)N[C@H](C(=O)N2C[C@H]3[C@@H]([C@H]2C(=O)N[C@@H](CC2CC2)C(=O)C(=O)NC2CC2)C3(C)C)C2(C)CCCCC2)CCCCC1 [compound 1363] | > 7.12 |
| CCC[C@H](NC(=O)[C@@H]1[C@@H]2[C@H](CN1C(=O)[C@@H](NC(=O)NC1(CS(=O)(=O)N(C)C(C)(C)C(F)(F)F)CCCCC1)C1(C)CCCCC1)C2(C)C)C(=O)C(=O)NC1CC1 [compound 1364] | > 7.12 |
| CN(C(C)(C)C(F)(F)F)S(=O)(=O)CC1(NC(=O)N[C@H](C(=O)N2C[C@H]3[C@@H]([C@H]2C(=O)N[C@@H](CC2CC2)C(=O)C(=O)NC2CC2)C3(C)C)C2(C)CCCCC2)CCCCC1 [compound 1365] | > 7.12 |
| CCC[C@H](NC(=O)[C@@H]1[C@@H]2[C@H](CN1C(=O)[C@@H](NC(=O)NC1(CS(=O)(=O)N(C)C(C)(C)CF)CCCCC1)C(C)(C)C)C2(C)C)C(=O)C(=O)NC1CC1 [compound 1366] | > 7.12 |
| CN(C(C)(C)CF)S(=O)(=O)CC1(NC(=O)N[C@H](C(=O)N2C[C@H]3[C@@H]([C@H]2C(=O)N[C@@H](CC2CC2)C(=O)C(=O)NC2CC2)C3(C)C)C(C)(C)C)CCCCC1 [compound 1367] | > 7.12 |
| CCC[C@H](NC(=O)[C@@H]1[C@@H]2[C@H](CN1C(=O)[C@@H](NC(=O)NC1(CS(=O)(=O)N(C)C(C)(C)CF)CCCCC1)C1(C)CCCCC1)C2(C)C)C(=O)C(=O)NC1CC1 [compound 1368] | > 7.12 |
| CN(C(C)(C)CF)S(=O)(=O)CC1(NC(=O)N[C@H](C(=O)N2C[C@H]3[C@@H]([C@H]2C(=O)N[C@@H](CC2CC2)C(=O)C(=O)NC2CC2)C3(C)C)C2(C)CCCCC2)CCCCC1 [compound 1369] | > 7.12 |
| CCCC[C@H](NC(=O)[C@@H]1[C@@H]2[C@H](CN1C(=O)[C@@H](NC(=O)NC1(CS(=O)(=O)N3CCOCC3)CCCCC1)C1(C)CCCCC1)C2(C)C)C(=O)C(=O)NC1CC1 [compound 1370] | > 7.12 |
| CC1([C@H](NC(=O)NC2(CS(=O)(=O)N3CCOCC3)CCCCC2)C(=O)N2C[C@H]3[C@@H]([C@H]2C(=O)N[C@@H](CCC2CC2)C(=O)C(=O)NC2CC2)C3(C)C)CCCCC1 [compound 1371] | > 7.12 |
| CCC[C@H](NC(=O)[C@@H]1[C@@H]2[C@H](CN1C(=O)[C@@H](NC(=O)NC1(CS(=O)(=O)N3CCOCC3)CCCCC1)C1(C)CCCCC1)C2(C)C)C(=O)C(=O)NC1CC1 [compound 1372] | > 7.12 |
| CC1([C@H](NC(=O)NC2(CS(=O)(=O)N3CCOCC3)CCCCC2)C(=O)N2C[C@H]3[C@@H]([C@H]2C(=O)N[C@@H](CC2CC2)C(=O)C(=O)NC2CC2)C3(C)C)CCCCC1 [compound 1373] | > 7.12 |
| CCN(C1CC1)S(=O)(=O)CC1(NC(=O)N[C@H](C(=O)N2C[C@H]3[C@@H]([C@H]2C(=O)N[C@@H](CC2CC2)C(=O)C(=O)NC2CC2)C3(C)C)C2(C)CCCCC2)CCCCC1 [compound 1374] | > 7.12 |
| CCCC[C@H](NC(=O)[C@@H]1[C@@H]2[C@H](CN1C(=O)[C@@H](NC(=O)NC1(CS(=O)(=O)N(C(C)C)C3CC3)CCCCC1)C1(C)CCCCC1)C2(C)C)C(=O)C(=O)NC1CC1 [compound 1375] | > 7.12 |
| CC(C)N(C1CC1)S(=O)(=O)CC1(NC(=O)N[C@H](C(=O)N2C[C@H]3[C@@H]([C@H]2C(=O)N[C@@H](CCC2CC2)C(=O)C(=O)NC2CC2)C3(C)C)C2(C)CCCCC2)CCCCC1 [compound 1376] | > 7.12 |
| CCC[C@H](NC(=O)[C@@H]1[C@@H]2[C@H](CN1C(=O)[C@@H](NC(=O)NC1(CS(=O)(=O)N(CC3CC3)C3CC3)CCCCC1)C1(C)CCCCC1)C2(C)C)C(=O)C(=O)NC1CC1 [compound 1377] | > 7.12 |
| CC1([C@H](NC(=O)NC2(CS(=O)(=O)N(CC3CC3)C3CC3)CCCCC2)C(=O)N2C[C@H]3[C@@H]([C@H]2C(=O)N[C@@H](CC2CC2)C(=O)C(=O)NC2CC2)C3(C)C)CCCCC1 [compound 1378] | > 7.12 |
| C#CCC[C@H](NC(=O)[C@@H]1[C@@H]2[C@H](CN1C(=O)[C@@H](NC(=O)NC1(CS(=O)(=O)N(C)C3CC3)CCCCC1)C(C)(C)C)C2(C)C)C(=O)C(=O)NC1CC1 [compound 1379] | > 7.12 |
| CCC[C@H](NC(=O)[C@@H]1[C@@H]2[C@H](CN1C(=O)[C@@H](NC(=O)NC1(CS(=O)(=O)N(C)C3CCC3)CCCCC1)C(C)(C)C)C2(C)C)C(=O)C(=O)NC1CC1 [compound 1380] | > 7.12 |
| CN(C1CCC1)S(=O)(=O)CC1(NC(=O)N[C@H](C(=O)N2C[C@H]3[C@@H]([C@H]2C(=O)N[C@@H](CC2CC2)C(=O)C(=O)NC2CC2)C3(C)C)C(C)(C)C)CCCCC1 [compound 1381] | > 7.12 |
